Our source for the RUNX1 binding intensity values is the supplement of paper PMC10681739.

In all, about 4,000 sequences were measured (“arbitrary fluorescence units”: median about 830, highest 2% from about 6,500 on). Most of the strongest results are missing from this list.
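Also: Full-length recombinant human RUNX1 bound to double-stranded DNA microarray spots, detected with an Alexa488-labelled secondary antibody after the anti-RUNX1 primary, read as scanned spot fluorescence.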

This assay concerns the target RUNX1 (UniProt Q01196). Description: RUNX1 binding intensity (PBM fluorescence), RUNX1 alone (arbitrary fluorescence units); higher = stronger binding. The note with it: RUNX1 concentration 2 nM; ETS1 concentration 0 nM. The procedure: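 gcPBM on 36-bp genomic-derived probes (partner site mutated) containing one RUNX1 site and no ETS1 site. Recombinant human RUNX1 (2 nM) was incubated alone or with ETS1 (25 nM) and detected by anti-RUNX1 antibody fluorescence. Values are medians over 4 replicate spots (not normalised). The probes sit in constant array flanks that are not printed.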
Sequence of UniProt Q01196 (Q01196 whole entry): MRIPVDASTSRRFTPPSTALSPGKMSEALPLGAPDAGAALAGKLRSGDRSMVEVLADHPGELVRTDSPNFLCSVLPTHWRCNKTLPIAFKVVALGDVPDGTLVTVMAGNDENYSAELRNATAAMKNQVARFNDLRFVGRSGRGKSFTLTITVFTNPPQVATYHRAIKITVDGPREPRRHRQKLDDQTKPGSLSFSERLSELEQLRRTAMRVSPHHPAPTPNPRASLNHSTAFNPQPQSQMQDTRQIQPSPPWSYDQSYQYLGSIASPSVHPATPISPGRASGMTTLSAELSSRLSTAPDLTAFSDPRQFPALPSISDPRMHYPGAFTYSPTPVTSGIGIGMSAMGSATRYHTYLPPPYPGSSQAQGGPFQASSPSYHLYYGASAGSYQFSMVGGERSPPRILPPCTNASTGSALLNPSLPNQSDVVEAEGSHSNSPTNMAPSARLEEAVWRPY
Consider AGGGCAATTCCTTTGGGGCTGGTGGTCACGGACAAC, for which the RUNX1 binding intensity is 739. With GCAGAGAGGAGGTGTGGGGGTGGAGGAGGCCGCAGA, the RUNX1 binding intensity was 848. In turn, CCGCGGTTCCTGCTGCAGAAAGAAAGCGCAAATTTC had an RUNX1 binding intensity of 760. AAAACGCGCAAATACGGAGGCTGCGGCCCGCGGGCA had an RUNX1 binding intensity of 631. On to CGGGAGATTCCAGATCCAGGATCTGCTGCGGGCCCG, for which the RUNX1 binding intensity was determined as 676. The sequence CCCTTGCCAGAGGAATCCACTGCCACCGCAGAAGCA registered an RUNX1 binding intensity of 942. The value for GCATTGTGGTGGAAGACGCGCGCCGTATCTCTCAGG was 837; that for GTGGCGCGGTGGGGCGCGGACCCGAAACTGCCAAGT was 706. In turn, CCCCTAGTTCCCTTTTTGCTGGGCCGCAGTTTCGGT yielded an RUNX1 binding intensity of 1090. Regarding CTCCCCGCAGGGGGCCGCGCTTTATACACCCGGACC, the RUNX1 binding intensity turned out to be 798. Take AACAAACCACTCAATAGTGGCCAAACTACATGCTGG: the RUNX1 binding intensity was 803. Sequence GTCACCTGTGGCTTTTGGGGTGGGGGAGCAAGAAGA gave an RUNX1 binding intensity of 823.

The sequence CACTTGTCCTGCCTGGCCTGCGGCCGCCACCACTTC returned an RUNX1 binding intensity of 1190.

As to GCCGGCCGCAAAGCAGCTCCGCCCCTTGCTCTTCCA, the RUNX1 binding intensity turned out to be 1110. In turn, GGCTAAAGTGGTTGGGGGTTGGAGCCGGCGCGTGAC displayed an RUNX1 binding intensity of 859. The value for TCTCTTTGGTGGTTTCTTCTTTATCTTCATGGCTAG was 2370; that for AGGCTTTGCTGCCACAAACTTTCGTGCCACGAACCT was 779. Sequence CCTCCTTGCTCCCTGAGGGGGAGGTGGTTTTTGAGT came in with an RUNX1 binding intensity of 856. In turn, ACCTCCACCACAAAGAACAAAAAACGAAGGATAAAA showed an RUNX1 binding intensity of 1520. The value for GGACTGCCTGAACTGGGAGGTCACCGACCACAACCT was 866. The value for ACTTAGACGCCGCAACCCCAGGTCCGCGCTTGCTGC was 800; that for ACCTTGCGGGGGCAGTGGGTGGGTGTCACCTCCTCC was 934; that for GTCTTAGGTTGGAAGTCTGTGGTCCCTGTTCACATG was 774.

In the case of GATTCATGTCCTCCTCTATGCAACCACAGCATCTTC, the RUNX1 binding intensity worked out at 1410. The value for AGGGTGTTAGGGCCACAAGGGCAGCAAGACCAAGTG was 742. Regarding AGTGCTGGGCTGTGGGCCGGGGAGCAAGGCGGCTCG, the RUNX1 binding intensity was 762. On to TTCTGTGGGGACAATTAGGGTTTCTGGGTTTTCTGA, for which the RUNX1 binding intensity was found to be 865. CTGCGGTCGGGGCGAGGGAGCTGCCGGGGAGGTGAG showed an RUNX1 binding intensity of 1060.

Sequence GCCTCCTCAGGCAATTGCCCAAAATAGCCACATGTC yielded an RUNX1 binding intensity of 1060. Take TCTGGGCTGTGGTTACAAGCAGCAAGTGGCCATGGC: the RUNX1 binding intensity stood at 1540. AGCAAGGCCTGCGGGGAGGCGCAGCATGGACGCGTT had an RUNX1 binding intensity of 659. The sequence GAGTCGCTTCAGCTCCCGCCCCGCTCTGTGGCGTAG yielded an RUNX1 binding intensity of 698. Under AGTGCTTTGCGGTATAATACTGCACATGCTGTGTTG stands 3870; under GCCCCGAAAGTGGCCCGGCTGTTGGCCGCAGCGGGA, 734; under CTCTGAGCAGCAAGTGACAAAACCACGCAGGGCAGG, 694. Consider AGTAACCCGCAGGCTGTGCCGGCAGCATGTTGTCTT, for which the RUNX1 binding intensity came out at 1210. GTGGACTGGAGCCACAAGGGAGGCAGCAAGGAAGGT registered an RUNX1 binding intensity of 739. Regarding AGCACCACATTCTACACCTCCACCTCATGCTGCGTC, the RUNX1 binding intensity worked out at 1180. In turn, GGGGCTTGCTGCCGCAGAGCCGCCTTCGGCCCTCCC returned an RUNX1 binding intensity of 743. Under GAAACCTCAGGCACGGCCGGGCCACCATGAAAACAC stands 806; under CCATAGCCTAACCTCAAGCACCTCAGGCAGTTCTTT, 1160; under CTCTCTTTACTGTTGAGTAATCGCGGTCTCTGCTCC, 988. For GAGACTGCGGCCTCAGTGGTGCTGAAGATGGAGAGG, the RUNX1 binding intensity stood at 695. In the case of TACGACTTCAAGGCGGTCAACATCCAGGGCAAACTG, the RUNX1 binding intensity turned out to be 730. Take TCTTGGTGGTACTGCTGCACAGCAGCAAGTGGAAAC: the RUNX1 binding intensity was determined as 764. The value for GTGAGAGGAGGTGGGCGCTGGTTTAATGTGGTCAGC was 786. As for CCCTCTGCGGGACGAAGAAGGGGGACGTGCTGCTGG, the RUNX1 binding intensity is 777.

In turn, GAGGTGCCTGAAGCCAGTAGGTGGTTTTGGGTGCTA returned an RUNX1 binding intensity of 662. On to GTGTAACGCCCGTATGCATATCTATTTGCGGCCACC, for which the RUNX1 binding intensity came out at 768.

On to AGATTTATGTGGTAAATGGTTTCAGGGAACTGGTTC, for which the RUNX1 binding intensity was determined as 1010.

GGCCTTTTCTTCGGCCCTCACAGCCACCGCGACCCA yielded an RUNX1 binding intensity of 1050.

AGCAAAACCAAAAAAAAAAAAAAAAAGAGGAGATAA gave an RUNX1 binding intensity of 854. Under CTTGCGCCGTACGGGTACCTGCGGGCGGGGTGTACC stands 802. Regarding TACGTCACTTTCGGGCCGCCGTCCTGCGGGCAAGGG, the RUNX1 binding intensity turned out to be 774. The value for CAGTTCCAGGGAGCAGCCCCAAGCTTGTGGCCCTGA was 686; that for GCCTCCTCCCATCTCCTCCATGTGGTCAATCCAGTT was 2110; that for GCACAGGCCGTAAGGAAAAGGGTTGTGGGGCTCATT was 726.

Turning to ATATATCACCCCTGCCTTGCAAAACCACAAGACCAA, the RUNX1 binding intensity was 4850. On to AAGCCAGGATACCGCAGCCCTGCAGGGTGTGACTCA, for which the RUNX1 binding intensity worked out at 2150. Under GGGAGCGCGGTCGCAGCTCCCACTGCCGCCCTCTGG stands 734. Under CTTTCTGGTTACCTTCCTTTTTGGTTTTGGTTTCAT stands 1410. In the case of GGACCGGGAGTTAAGGCGTTCGCGGCGTGTGGTAAG, the RUNX1 binding intensity amounted to 678. GCCTCTGTGGGCTGATGAAGGACAGACAGAAAGCCA showed an RUNX1 binding intensity of 800. In turn, CGTCCAGCCGCAAGGGAGAGCAGATTCCTCCAGTGC registered an RUNX1 binding intensity of 848. The sequence GAGGAGGTGGTTGCTATAACCCCAAGGGGGAATCGC yielded an RUNX1 binding intensity of 736. Sequence CATGCCTACCCGCGGGCCCTCTCAGCTGCCGTACAC showed an RUNX1 binding intensity of 1160. AGCTCCATGAAGAGGGCCTGAAAACCAAACGGGGGA registered an RUNX1 binding intensity of 842. In turn, GGCTGATGGGGAGAAGAGAGTGGCTGTGGTCTCTGG returned an RUNX1 binding intensity of 746. Sequence ATAGACGACCACAGCCTGTGCACCCTCAGGCAGTAA displayed an RUNX1 binding intensity of 1010. In turn, CACCTCAGCTTCATGTGTAGCTGGGACCACAGGCAT showed an RUNX1 binding intensity of 759. With GCTGCCAGGTGGCCACAGCGCACAGTAAACGAGACT, the RUNX1 binding intensity is 764. The value for ACAGCAAGTGAGGCTGTGAGGAGTTTGTGGTGTGTA was 829; that for CCATTCTTACGGTGGAGATGGCTGCGGCCGTGGCGG was 815. In the case of GTTGGGTGGGCAAGTGGATGGTGGTTTTGGCAGAGG, the RUNX1 binding intensity is 1280. Consider TGCAAGAAGAAGCTGGGGTTTGTGGTTCATGTTTTG, for which the RUNX1 binding intensity came out at 794. Sequence AGCTGTGGCTTCAGTGTTTCTGATCTCCTCTTGTTG had an RUNX1 binding intensity of 874. Take GAGACACCGCATGGGTAGAGAAACCTCCGTAATGTT: the RUNX1 binding intensity turned out to be 751. In the case of AAGGTCGCTGCGGGGATGGGGGCCGGGAATCTCCTC, the RUNX1 binding intensity amounted to 878.

On to CTTATCTTCTTCATGTGAGCTGTGTGTGGGTGGCTC, for which the RUNX1 binding intensity was determined as 839. In turn, GGCGCCCGCAGCCTCCAGGCATCGCGCCCGGCTGGA yielded an RUNX1 binding intensity of 816.
